# The other results are listed elsewhere or left out. The full chains were built here from the parent and the listed change. Values near 0.05 are background.
# B1: TEV protease; numbered along this chain (parent)
# chain: MGESLFKGPRDYNPISSSICHLTNESDGHTTSLYGIGFGPFIITNKHLFRRNNGTLVVQSLHGVFKVKDTTTLQQHLVDGRDMIIIRMPKDFPPFPQKLKFREPQREERICLVTTNFQTKSMSSMVSDTSCTFPSGDGIFWKHWIQTKDGQCGSPLVSTRDGFIVGIHSASNFTNTNNYFTSVPKNFMELLTNQEAQQWVSGWRLNADSVLWGGHKVFMVKPEEPFQPVKEATQL
# Variants of: B1
# Assay: raw area under fraction-flipped curve 0-4 h after induction (AUC4h, not background-subtracted), DNA-recorder readout of cleavage of the substrate (dimensionless); higher = more cleavage of the substrate by the protease variant
# Conditions: temperature: 34 °C; time window: 0-4 h after rhamnose induction
# 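Note: Bxb1 expression induced with 0.2% (w/v) L-rhamnose at OD600 near 0.5, cultures sampled hourly, flipped fraction per protease–substrate barcode pair counted by paired-end Illumina sequencing.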
Variant,area with substrate ECLYFQS,area with substrate EELYFQS,area with substrate EFLYFQS,area with substrate EGLYFQS,area with substrate ESLYFQS,area with substrate ETLYFQS,area with substrate EDLYFQS,area with substrate EILYFQS,area with substrate EQLYFQS,area with substrate EVLYFQS
MGESLFKGPRDYNPISSSICHLTNESDGHTTSLYGIGFGPFIITNKHLFRRNNGTLVVQSLHGVFKVKDTTTLQQHLVDGRDMIIIRMPKDFPPFPQKLKFREPQREERICLVTTNFQTKSMSSMVSDTSCTFPSGDGIFWKHWIQTKDGQCGSPLVSTRDGFIVGIHSASNFTNTNNYFTSVPKNFMELLTNQEAQQWVSGWRLNCDSVLWGGHKVFMVKPEEPFQPVKEATQL [A207C],0.119,0.131,0.0911,0.101,0.104,0.154,,,,
MGESLFKGPRDYNPISSSICHLTNESDGHTTSLYGIGFGPFIITNKHLFRRNNGTLVVQSLHGVFKVKDTTTLQQHLVDGRDMIIIRMPKDFPPFPQKLKFREPQREERICLVTTNFQTKSMSSMVSDTSCTFPSGDGIFWKHWIQTKDGQCGSPLVSTRDGFIVGIHSASNFTNPNNYFTSVPKNFMELLTNQEAQQWVSGWRLNADSVLWGGHKVFMVKPEEPFQPVKEATQL [T176P],0.0586,0.065,,,0.0608,,0.0691,0.0557,0.0518,0.0536
MGESLFKGPRDYNPISSSICHLTNESDGHTTSLYGIGFGPFIITNKHLFRRNNGTLVVQSLHGVFKVKDTTTLQQHLVDGRDMIIIRMPKDFPPFPQKLKFREPQREERICLVTTNFQTKSMSSMVSDTSCTFPSGDGIFWKHWIQTKDGQCGSPLVSTRDGFIVGIHSASNFTNTNNYFTSVPKNFMELLTNQEAQQWVSGWRLNALSVLWGGHKVFMVKPEEPFQPVKEATQL [D208L],0.0626,,,0.0581,,,0.0639,,0.092,0.0601
MGESLFKGPRDYNPISSSICHLTNESDGHTTSLYGIGFGPFIITNKHLFRRNNGTLVVQSLHGVFKVKDTTTLQQHLVDGRDMIIIRMPKDFPPFPQKLKFREPQREERICLVTTNFQTKSMSSMVSDTSCTFPSGDGIFWKHWIQTKDGQCGSPLVSTGDGFIVGIHSASNFTNTNNYFTSVPKNFMELLTNQEAQQWVSGWRLNADSVLWGGHKVFMVKPEEPFQPVKEATQL [R160G],0.117,0.122,,0.112,0.0866,0.0943,0.114,0.0983,0.118,0.0993
MGESLFKGPRDYNPISSSICHLTNESDGHTTSLYRIGFGPFIITNKHLFRRNNGTLVVQSLHGVFKVKDTTTLQQHLVDGRDMIIIRMPKDFPPFPQKLKFREPQREERICLVTTNFQTKSMSSMVSDTSCTFPSGDGIFWKHWIQTKDGQCGSPLVSTRDGFIVGIHSASNFTNTNNYFTSVPKNFMELLTNQEAQQWVSGWRLNADSVLWGGHKVFMVKPEEPFQPVKEATQL [G35R],0.048,,,,,,,,,
MGESLFKGPRDYNPISSSICHLTNESDGHTTSLYGIGFGPFIITNKHLFRRNNGTLVVQSLHGVFKVKDTTTLQQHLVDGRDMIIIRMPKDFPPFPQKLKFREPQREERICLVTTNFQTKSMSSMVSDTSCTFPSGDGIFWKHWIQTKDGQCGSPLVSTRDGFIVGIHSASNFTNTNNYFTSVPKNFMELLTNQEAQQWVSGWRLNADSVLWGGHAVFMVKPEEPFQPVKEATQL [K216A],0.0971,0.0924,,,,,,0.094,,
MGESLFKGPRDYNPISSSICHLTNESDGHTTSLYGIGFGPFIITNKHLFRRNNGTLVVQSLHGVFKVKDTTTLQQHLVDGRDMIIIRMPKDFPPFPQKLKFREPQREERICLVTTNFQTKSMSSMVSDTSCTFPSGDGIFWKHWIQTKDGQCGSPLVSTRDGFIVGIVSASNFTNTNNYFTSVPKNFMELLTNQEAQQWVSGWRLNADSVLWGGHKVFMVKPEEPFQPVKEATQL [H168V],,,,0.0623,0.057,0.0604,0.071,0.0637,0.0643,0.0464
MGESLFKGPRDYNPISSSICHLTNESDGHTTSLYGIGFGPFIITNKHLFRRNNGTLVVQSLHGVFKVKDTTTLQQHLVDGRDMIIIRMPKDFPPFPQKLKFREPQREERICLVTTNFQTTSMSSMVSDTSCTFPSGDGIFWKHWIQTKDGQCGSPLVSTRDGFIVGIHSASNFTNTNNYFTSVPKNFMELLTNQEAQQWVSGWRLNADSVLWGGHKVFMVKPEEPFQPVKEATQL [K120T],,,,0.0995,0.0851,,0.0979,,,
MGESLFKGPRDYNPISSSICHLTNESDGHTTSLYGIGFGPFIITNKHLFRRNNGQLVVQSLHGVFKVKDTTTLQQHLVDGRDMIIIRMPKDFPPFPQKLKFREPQREERICLVTTNFQTKSMSSMVSDTSCTFPSGDGIFWKHWIQTKDGQCGSPLVSTRDGFIVGIHSASNFTNTNNYFTSVPKNFMELLTNQEAQQWVSGWRLNADSVLWGGHKVFMVKPEEPFQPVKEATQL [T55Q],,,,,0.111,0.14,0.0795,0.105,0.145,

# Same assay, conditions: temperature: 34 °C; time window: 0-4 h after rhamnose induction
Variant,area with substrate EWLYFQS,area with substrate EHLYFQS,area with substrate EKLYFQS,area with substrate EMLYFQS,area with substrate EPLYFQS,area with substrate ERLYFQS,area with substrate EYLYFQS,area with substrate ELLYFQS
MGESLFKGPRDYNPISSSICHLTNESDGHTTSLYGIGFGPFIITNKHLFRRNNGTLVVQSLHGVFKVKDTTTLQQHLVDGRDMIIIRMPKDFPPFPQKLKFREPQREERICLVTTNFQTKSMSSMVSDTSCTFPSGDGIFWKHWIQTKDGQCGSPLVSTRDGFIVGIHSASNFTNPNNYFTSVPKNFMELLTNQEAQQWVSGWRLNADSVLWGGHKVFMVKPEEPFQPVKEATQL [T176P],0.0546,,,,,,,
MGESLFKGPRDYNPISSSICHLTNESDGHTTSLYGIGFGPFIITNKHLFRRNNGTLVVQSLHGVFKVKDTTTLQQHLVDGRDMIIIRMPKDFPPFPQKLKFREPQREERICLVTTNFQTKSMSSMVSDTSCTFPSGDGIFWKHWIQTKDGQCGSPLVSTGDGFIVGIHSASNFTNTNNYFTSVPKNFMELLTNQEAQQWVSGWRLNADSVLWGGHKVFMVKPEEPFQPVKEATQL [R160G],,0.121,0.132,0.117,0.122,0.106,0.114,
MGESLFKGPRDYNPISSSICHLTNESDGHTTSLYRIGFGPFIITNKHLFRRNNGTLVVQSLHGVFKVKDTTTLQQHLVDGRDMIIIRMPKDFPPFPQKLKFREPQREERICLVTTNFQTKSMSSMVSDTSCTFPSGDGIFWKHWIQTKDGQCGSPLVSTRDGFIVGIHSASNFTNTNNYFTSVPKNFMELLTNQEAQQWVSGWRLNADSVLWGGHKVFMVKPEEPFQPVKEATQL [G35R],,,,,,0.039,,
MGESLFKGPRDYNPISSSICHLTNESDGHTTSLYGIGFGPFIITNKHLFRRNNGTLVVQSLHGVFKVKDTTTLQQHLVDGRDMIIIRMPKDFPPFPQKLKFREPQREERICLVTTNFQTKSMSSMVSDTSCTFPSGDGIFWKHWIQTKDGQCGSPLVSTRDGFIVGIHSASNFTNTNNYFTSVPKNFMELLTNQEAQQWVSGWRLNADSVLWGGHAVFMVKPEEPFQPVKEATQL [K216A],0.0853,,0.11,0.117,,,,
MGESLFKGPRDYNPISSSICHLTNESDGHTTSLYGIGFGPFIITNKHLFRRNNGTLVVQSLHGVFKVKDTTTLQQHLVDGRDMIIIRMPKDFPPFPQKLKFREPQREERICLVTTNFQTKSMSSMVSDTSCTFPSGDGIFWKHWIQTKDGQCGSPLVSTRDGFIVGIVSASNFTNTNNYFTSVPKNFMELLTNQEAQQWVSGWRLNADSVLWGGHKVFMVKPEEPFQPVKEATQL [H168V],0.0586,0.0653,,0.0561,0.0698,,0.0561,0.0641
MGESLFKGPRDYNPISSSICHLTNESDGHTTSLYGIGFGPFIITNKHLFRRNNGTLVVQSLHGVFKVKDTTTLQQHLVDGRDMIIIRMPKDFPPFPQKLKFREPQREERICLVTTNFQTTSMSSMVSDTSCTFPSGDGIFWKHWIQTKDGQCGSPLVSTRDGFIVGIHSASNFTNTNNYFTSVPKNFMELLTNQEAQQWVSGWRLNADSVLWGGHKVFMVKPEEPFQPVKEATQL [K120T],,,,0.0923,,0.0608,,
MGESLFKGPRDYNPISSSICHLTNESDGHTTSLYGIGFGPFIITNKHLFRRNNGQLVVQSLHGVFKVKDTTTLQQHLVDGRDMIIIRMPKDFPPFPQKLKFREPQREERICLVTTNFQTKSMSSMVSDTSCTFPSGDGIFWKHWIQTKDGQCGSPLVSTRDGFIVGIHSASNFTNTNNYFTSVPKNFMELLTNQEAQQWVSGWRLNADSVLWGGHKVFMVKPEEPFQPVKEATQL [T55Q],0.0852,,0.107,0.114,0.107,0.1,0.1,0.0852
